Measurements: the supplement of paper PMC4967469
By IC50 is meant the dose at which the fit gives 50% viability; a limit (>, <) means that the fit lies beyond the doses tested. For AUC the same curve is integrated over the 256-fold range of doses and scaled to a fraction; values near 1 show little effect. For part of these data: The top dose, if marked as inferred, was calculated from the reported fits. For part of these data: Drugs with an entry number were screened twice under separate entries, and the two screens often disagree.

Columns and labels:
Test in all cases: Viability of human cancer cell lines after 72 h of drug (GDSC screen)
[1] = compound: COc1cc2ncnc(-n3nc(-c4ccccn4)nc3N)c2cc1OC [CP466722]; conditions: top dose 16 µM; top dose inferred
Description: (§1)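 Human cancer cell lines in 384-well plates, medium with 10% serum, drug for 72 h over a 256-fold dose range (nine 2-fold or five 4-fold steps up to the top dose). Adherent lines were fixed and stained with the nucleic acid dye Syto60, suspension lines read with resazurin; signal relative to control wells, capped at 0 and 100%. One two-parameter sigmoid per drug and line, fitted in a mixed model over all curves with the slope shared within a line.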

[2] = compound: C[C@]1(c2nc3c(C(N)=O)cccc3[nH]2)CCCN1 [ABT-888]; conditions: top dose 5 µM; top dose inferred
Description: as §1

[3] = compound: C=CC(=O)Nc1cc(-n2c(=O)ccc3cnc4ccc(-c5cn[nH]c5)cc4c32)ccc1C [QL-X-138]; conditions: top dose 10.24 µM; top dose inferred
Description: as §1

[4] = compound: CCn1c(-c2nonc2N)nc2cnc(Oc3cccc(NC(=O)c4ccc(OCCN5CCOCC5)cc4)c3)cc21 [GSK269962A]; conditions: top dose inferred
Description: as §1

[5] = compound: C/C=C(/C)C(=O)O[C@H]1C(C)=C2[C@H]([C@@H]1OC(=O)CCCCCCC)[C@@](C)(OC(C)=O)C[C@H](OC(=O)CCC)[C@@]1(O)[C@H]2OC(=O)[C@@]1(C)O [Thapsigargin]; conditions: top dose 0.512 µM; top dose inferred
Description: as §1

[6] = compound: Cc1cnc(-c2cnc(NCCNc3ccc(C#N)cn3)nc2-c2ccc(Cl)cc2Cl)[nH]1 [CHIR-99021]
Description: as §1

[7] = compound: Cc1ccc(-c2c(C(=O)CCl)n(CCCO)c3ncnc(N)c23)cc1 [CMK]; conditions: top dose 4 µM; top dose inferred
Description: as §1

[8] = compound: COc1cc(N2CCC(O)CC2)ccc1Nc1cc(Nc2ccccc2S(=O)(=O)C(C)C)c2cc[nH]c2n1 [MPS-1-IN-1]; conditions: top dose 20 µM; top dose inferred
Description: as §1

[9] = compound: COc1nc(C)cnc1NS(=O)(=O)c1cccnc1-c1ccc(-c2nnco2)cc1 [Zibotentan]; conditions: top dose 20 µM; top dose inferred
Description: as §1

[10] = compound: Cc1ccc(F)c(NC(=O)Nc2ccc(-c3cccc4[nH]nc(N)c34)cc2)c1 [ABT-869]; conditions: top dose 1.024 µM; top dose inferred
Description: as §1

[11] = compound: COc1cc(O)c2c(c1)/C=C/C[C@H](O)[C@H](O)C(=O)/C=C\C[C@H](C)OC2=O [(5Z)-7-Oxozeaenol]; conditions: top dose 10 µM; top dose inferred
Description: as §1

[12] = compound: O=c1cc(-c2cccc3c2Sc2ccccc2S3)oc(N2CCOCC2)c1 [KU-55933]; conditions: top dose 10 µM
Description: as §1

[13] = top dose 2.5 µM, screen: GDSC drug entry 127
[14] = top dose 5 µM, screen: GDSC drug entry 1192
[15] = top dose 2.56 µM, screen: GDSC drug entry 154
[16] = top dose 10 µM, screen: GDSC drug entry 1241, top dose inferred

| Cell Line | AUC [1] | IC50 [1] [µM] | AUC [2] | IC50 [2] [µM] | AUC [3] | IC50 [3] [µM] | AUC [4, 13] | IC50 [4, 13] [µM] | AUC [4, 14] | IC50 [4, 14] [µM] | AUC [5] | IC50 [5] [µM] | AUC [6, 15] | IC50 [6, 15] [µM] | AUC [6, 16] | IC50 [6, 16] [µM] | AUC [7] | IC50 [7] [µM] | AUC [8] | IC50 [8] [µM] | AUC [9] | IC50 [9] [µM] | AUC [10] | IC50 [10] [µM] | AUC [11] | IC50 [11] [µM] | AUC [12] | IC50 [12] [µM] |
| --- | --- | --- | --- | --- | --- | --- | --- | --- | --- | --- | --- | --- | --- | --- | --- | --- | --- | --- | --- | --- | --- | --- | --- | --- | --- | --- | --- | --- |
| CTB-1 (B-cell lymphoma, suspension) | 0.891 | > 16 | 0.979 | > 5 | 0.343 | 0.199 | 0.967 | > 2.5 | 0.906 | > 5 | 0.462 | 0.0243 | 0.979 | > 2.56 | 0.976 | > 10 | 0.743 | 1.64 | 0.929 | > 20 | 0.979 | > 20 | 0.979 | > 1.02 | 0.759 | 4.72 | 0.928 | > 10 |
| DU-4475 (breast, suspension) | 0.802 | 6.24 | 0.992 | > 5 |  |  | 0.988 | > 2.5 | 0.944 | > 5 | 0.221 |  | 0.992 | > 2.56 | 0.969 | > 10 | 0.98 | > 4 | 0.919 | > 20 | 0.992 | > 20 | 0.99 | > 1.02 | 0.23 | 0.125 | 0.981 | > 10 |
| HOP-62 (lung adenocarcinoma, adherent) | 0.823 | 9.39 | 0.972 | > 5 | 0.66 | 1.78 | 0.958 | > 2.5 | 0.897 | > 5 | 0.08 | < 0.002 |  |  |  |  | 0.891 | > 4 | 0.872 | 18.9 | 0.983 | > 20 | 0.973 | > 1.02 | 0.678 | 1.96 | 0.977 | > 10 |
| MOLM-13 (acute myeloid leukaemia, suspension) | 0.393 | 0.519 | 0.97 | > 5 |  |  | 0.791 | 1.05 | 0.755 | 1.6 | 0.375 | 0.0148 | 0.981 | > 2.56 | 0.983 | > 10 | 0.805 | 1.87 | 0.776 | 7.48 | 0.969 | > 20 |  |  | 0.081 | < 0.0391 | 0.963 | > 10 |
| MSTO-211H (mesothelioma, adherent) | 0.983 | > 16 | 0.971 | > 5 | 0.967 | > 10.2 | 0.94 | > 2.5 | 0.493 | 0.299 | 0.608 | 0.0614 | 0.99 | > 2.56 |  |  | 0.961 | > 4 | 0.991 | > 20 | 0.991 | > 20 | 0.982 | > 1.02 |  |  | 0.987 | > 10 |
| MV-4-11 (leukaemia, suspension) | 0.358 | 0.438 | 0.954 | > 5 | 0.259 | 0.153 | 0.488 | 0.146 | 0.368 | 0.146 | 0.312 | 0.0107 | 0.957 | > 2.56 | 0.853 | 5.76 | 0.803 | 1.58 | 0.882 | 14.7 | 0.99 | > 20 |  |  | 0.022 | < 0.0391 | 0.857 | 5.93 |
| MY-M12 (leukaemia, suspension) | 0.571 | 1.6 | 0.981 | > 5 | 0.282 | 0.141 | 0.47 | 0.128 |  |  |  |  | 0.862 | > 2.56 |  |  | 0.83 | 2.96 | 0.836 | 15.8 | 0.967 | > 20 | 0.98 | > 1.02 |  |  | 0.957 | > 10 |
| NALM-6 (B-cell leukaemia, suspension) | 0.502 | 1.01 | 0.983 | > 5 |  |  | 0.825 | 1.18 | 0.951 | > 5 | 0.067 | < 0.002 | 0.896 | 2.24 | 0.947 | > 10 | 0.871 | 2.76 | 0.746 | 5.47 | 0.969 | > 20 | 0.987 | > 1.02 | 0.722 | 2.34 | 0.949 | > 10 |
| NCI-H1975 (lung adenocarcinoma, adherent) | 0.82 | 11 | 0.983 | > 5 | 0.669 | 2.03 | 0.776 | 1.15 | 0.597 | 0.602 | 0.215 | 0.00402 | 0.895 | > 2.56 | 0.938 | > 10 | 0.843 | 3.46 | 0.884 | > 20 |  |  | 0.982 | > 1.02 | 0.599 | 1.22 | 0.959 | > 10 |
| NKM-1 (acute myeloid leukaemia, suspension) | 0.623 | 2.21 | 0.921 | > 5 |  |  | 0.972 | > 2.5 | 0.88 | > 5 | 0.352 | 0.0123 | 0.902 | > 2.56 | 0.913 | > 10 | 0.978 | > 4 | 0.776 | 8.19 | 0.981 | > 20 | 0.192 | 0.00744 | 0.457 | 0.475 | 0.907 | > 10 |
